Experimental data as given in US20250295801A1, “CD25 ANTIBODIES, ANTIBODY DRUG CONJUGATES, AND USES THEREOF” (Seagen Inc., priority 2024, published 2025).

What was measured:
[1] = target: T1, recombinant human CD25 (Homo sapiens, UniProt P01589); assay: Kinetic binding assay (ForteBio Octet RED384) on biotinylated recombinant human CD25; conditions: for kinetic binding to recombinant human CD25 (binding curves): FIG. 6A, 6B; for ka: association 300 seconds; for kd: disassociation 900 seconds
T1 construct: biotin (biotinylated); purchased Acro Biosystems
T1 sequence (P01589 22-272): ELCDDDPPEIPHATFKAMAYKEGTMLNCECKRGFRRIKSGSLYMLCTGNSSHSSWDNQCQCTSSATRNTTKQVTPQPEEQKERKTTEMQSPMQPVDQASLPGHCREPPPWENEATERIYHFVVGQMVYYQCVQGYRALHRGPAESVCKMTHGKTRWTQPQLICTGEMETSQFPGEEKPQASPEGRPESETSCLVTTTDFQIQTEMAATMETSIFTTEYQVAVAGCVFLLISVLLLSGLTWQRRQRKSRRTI
Protocol: Biotinylated recombinant human CD25 was obtained from Acro Biosystems. Biotinylated hCD25 protein was loaded on SAX (High sensitivity streptavidin) tips at 0.8 nM loading density. Affinity measurements were run using a ForteBio Octet RED384 instrument in the kinetic buffer comprising 1×PBS, 0.1% BSA, 0.02% Tween20, pH 7.4. Association measurements were performed for 300 seconds and disassociation measurements were performed for 900 seconds. Each curve was reference subtracted and modeled using a 1:1 global fit. KD results are reported as ka divided by kd.

[2] = system: CD25 expressing cells; assay: Internalization into CD25 expressing cells; assay type: cell-based, human; conditions: FIG. 1E
[3] = system: CD25-expressing L540cy tumor cells; assay: NK cell mediated antibody-dependent cellular cytotoxicity (ADCC); assay type: cell-based; conditions: human NK cells, L540cy target cells, 4 hours
Protocol: NK cell mediated antibody dependent cellular cytotoxicity (ADCC) was examined in both fucosylated and non-fucosylated antibody forms. Human NK cells (158 V/V) were purified from a single human PBMC donor (Astarte) using an EasySep Human NK cell enrichment kit ([…] Technologies) according to the manufacturer's instructions. Antibodies were incubated with human NK cells and CD25-expressing L540cy tumor cells for 4 hours, at which time cell-mediated cytotoxicity was assessed using a CytoTox 96 Non-Radioactive Cytotoxicity Assay (Promega) according to manufacturer's instructions.

[4] = system: Tregs in human PBMCs; assay: Treg depletion from peripheral blood mononuclear cells; assay type: cell-based; conditions: 24 hours; FIG. 2B, 12
Protocol: Frozen human PBMCs (Astarte) were thawed and plated at a density of 400,000 cells per well. 5-fold dilutions of antibodies were added and incubated at 37° C. for 24 hours. Samples were run by flow cytometry and Tregs were gated by labeling CD3+/CD4+/CD25+ and CD127low/neg. The extent of depletion was determined by comparison to an untreated sample.

[5] = system: human CD25 transgenic mice; assay: In vivo T cell depletion in human CD25 transgenic mice (spleen, flow cytometry); design: species or system mouse; conditions: non-fucosylated antibody, 0.1 mg/kg intravenous; for depletion of splenic CD4 cells: 72 hours, FIG. 14A
Protocol: At 72 or 168 hours post-dose, the mice were sacrificed and the spleens harvested for flow cytometry analysis of T cell populations.

[6] = target: T2, recombinant human CD25 (Homo sapiens, UniProt P01589); assay: Saturation binding analysis by ELISA; conditions: FIG. 7, 8A, 8B
T2 sequence (P01589 22-240 limits assumed): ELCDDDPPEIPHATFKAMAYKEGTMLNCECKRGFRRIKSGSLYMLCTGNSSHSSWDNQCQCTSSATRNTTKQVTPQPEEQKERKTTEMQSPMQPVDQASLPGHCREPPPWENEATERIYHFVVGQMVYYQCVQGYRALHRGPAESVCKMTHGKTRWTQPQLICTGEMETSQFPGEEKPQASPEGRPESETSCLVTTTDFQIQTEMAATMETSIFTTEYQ
Protocol: Saturation binding ELISA experiments were performed using soluble recombinant antigens, which were diluted to an appropriate concentration in 50 mM carbonate buffer, pH 9.6. To each well of a 96- or 384-well Maxisorb ELISA plate was added 100 μL of soluble antigen. The plate was sealed and stored at 4° C. overnight. The plate was then washed 3-5 times with PBS-T was buffer (PBS, pH 7.4+0.05% Tween-20). The wells were blocked using 300 μL/well of PBS-T buffer containing BSA for 1 hour at room temperature, then washed 3-5 times with PBS-T. Dilutions of antibodies were prepared in blocking buffer and added to each well in a volume of 100 μL. The antibodies were incubated for 1 hour at room temperature, and then washed 3-5 times with PBS-T. HRP-conjugated secondary antibodies (anti-human Fc) were then added and incubated for 1 hour at room temperature. […] The absorbance at 450 nm was determined using a Spectramax 190 plate reader ([…]) and the data plotted using GraphPad Prism 6.
(§1) Saturation binding analysis of CD25 antibody SG25Ab-9 and detuned CD25 antibody SG25Ab-9 YH98A on recombinant human and cyno CD25 was assessed by ELISA.
Saturation binding analysis of CD25 antibody SG25Ab-9 and 15 CD25 antibody SG25Ab-9 variants on recombinant human CD25 was assessed by ELISA.

[7] = system: recombinant cyno CD25; assay: Saturation binding analysis by ELISA; design: species or system cynomolgus; conditions: compared with human CD25, FIG. 1A, 1B, 7
Protocol: Saturation binding ELISA experiments were performed using soluble recombinant antigens, which were diluted to an appropriate concentration in 50 mM carbonate buffer, pH 9.6. To each well of a 96- or 384-well Maxisorb ELISA plate was added 100 μL of soluble antigen. The plate was sealed and stored at 4° C. overnight. The plate was then washed 3-5 times with PBS-T was buffer (PBS, pH 7.4+0.05% Tween-20). The wells were blocked using 300 μL/well of PBS-T buffer containing BSA for 1 hour at room temperature, then washed 3-5 times with PBS-T. Dilutions of antibodies were prepared in blocking buffer and added to each well in a volume of 100 μL. The antibodies were incubated for 1 hour at room temperature, and then washed 3-5 times with PBS-T. HRP-conjugated secondary antibodies (anti-human Fc) were then added and incubated for 1 hour at room temperature. The plate was washed 3-5 times with PBS-T. The ELISA was developed by adding 100 μL of TMB solution and incubating for 3-15 min at room temperature. To stop the reaction, 100 μL of 1 N sulfuric acid was added to each well. The absorbance at 450 nm was determined using a Spectramax 190 plate reader ([…]) and the data plotted using GraphPad Prism 6.
as §1

[8] = system: L82 xenograft; assay: In vivo efficacy in cell line xenograft model; design: species or system NSG mice; conditions: FIG. 4B, FIG. 11A at 1.2 mg/kg
Protocol: The in vivo efficacy of CD25 ADCs was evaluated in three xenograft models that express CD25 (DEL, L82, L540cy) in either SCID (DEL, L540cy) or NSG mice (L82). To conduct the efficacy experiments, 5×10^6 cells were injected subcutaneously into 5 female mice per group. Mice were randomly divided to study groups and dosed with test article via intraperitoneal injection once the tumors reached approximately 100 mm^3. For the L82 model in NSG mice, all mice were pre-treated with 10 mg/kg human IVIG 24 hours prior to treatment. Animals were euthanized when tumor volumes reach 800-1000 mm^3. Tumor volume was calculated with the formula (volume=1/2×length×width×width). Mice showing durable regressions were terminated around day 60.

Molecule | kinetic binding to recombinant human CD25 (binding curves) [1] | ka [1] [M⁻¹ s⁻¹] | kd [1] [s⁻¹] | internalization into CD25 expressing cells [2] | NK-mediated ADCC activity [3] | Treg depletion from PBMC [4] | depletion of splenic CD4 cells [5] | kinetic binding to recombinant human CD25 (binding curves) ([1]; listed as YH98 Å) | binding affinity to recombinant human CD25 [6] | binding to recombinant cynomolgus CD25 [7] | in vivo anti-tumor activity [8] | depletion of human CD25 expressing mouse CD4 cells and Treg cells ([5]; 72 hours after administration, FIG. 14B)
SG25Ab-9: fully human anti-CD25 IgG1 antibody; VH SEQ ID NO: 7, VL SEQ ID NO: 8, HC SEQ ID NO: 45, LC SEQ ID NO: 47 (antibody) heavy: QVQLVQSGAEVKKPGESLKISCKGSGYSSTSYWIGWVRQMPGKGLEWMGIIYPGDSDTRYSPSFQGQVTISADKSISTAYLQWSSLKASDTAMYYCARLGSYYAFDIWGRGTMVTVSS[human IgG1 constant region left out here] light: QSALTQPASVSASPGQSITISCTGTSSDVGAYIYVSWYQQLSGKPPKLILYDVSKRPSGISDRFSGSKSGNTASLTISGLQADDEADYYCSSYTRSSTWVFGGGTQLTVLGQPKAAPSVTLFPPSSEELQANKATLVCLISDFYPGAVTVAWKADSSPVKAGVETTTPSKQSNNKYAASSYLSLTPEQWKSHRSYSCQVTHEGSTVEKTVAPTECS | efficient CD25 binding | 210000 | 2.7e-05 | efficiently internalized into CD25 expressing cells | robust NK-mediated ADCC activity | readily depleted Tregs | neither antibody depleted splenic CD4 cells | – | – | – | – | –
SG25Ab-9 YH98A (antibody) heavy: QVQLVQSGAEVKKPGESLKISCKGSGYSSTSYWIGWVRQMPGKGLEWMGIIYPGDSDTRYSPSFQGQVTISADKSISTAYLQWSSLKASDTAMYYCARLGSAYAFDIWGRGTMVTVSS[human IgG1 constant region left out here] light: QSALTQPASVSASPGQSITISCTGTSSDVGAYIYVSWYQQLSGKPPKLILYDVSKRPSGISDRFSGSKSGNTASLTISGLQADDEADYYCSSYTRSSTWVFGGGTQLTVLGQPKAAPSVTLFPPSSEELQANKATLVCLISDFYPGAVTVAWKADSSPVKAGVETTTPSKQSNNKYAASSYLSLTPEQWKSHRSYSCQVTHEGSTVEKTVAPTECS | faster off rate | 310000 | 0.0043 | – | reduced ADCC activity towards CD25-expressing L540cy cancer cells compared to CD25 antibody SG25Ab-9 | reduced Treg depleting activity in vitro | neither antibody depleted splenic CD4 cells | reduced binding affinity to CD25 | decrease in affinity to both human and cyno CD25 | decrease in affinity to both human and cyno CD25 | retained in vivo activity comparable to SG25Ab-9 | reduced depletion of human CD25 expressing mouse CD4 cells and human CD25 expressing mouse Treg cells than CD25 antibody SG25Ab-9
YH99A: SG25Ab-9 variant with point mutation in heavy chain CDR residue (antibody) heavy: QVQLVQSGAEVKKPGESLKISCKGSGYSSTSYWIGWVRQMPGKGLEWMGIIYPGDSDTRYSPSFQGQVTISADKSISTAYLQWSSLKASDTAMYYCARLGSYAAFDIWGRGTMVTVSS[human IgG1 constant region left out here] light: QSALTQPASVSASPGQSITISCTGTSSDVGAYIYVSWYQQLSGKPPKLILYDVSKRPSGISDRFSGSKSGNTASLTISGLQADDEADYYCSSYTRSSTWVFGGGTQLTVLGQPKAAPSVTLFPPSSEELQANKATLVCLISDFYPGAVTVAWKADSSPVKAGVETTTPSKQSNNKYAASSYLSLTPEQWKSHRSYSCQVTHEGSTVEKTVAPTECS | – | 390000 | 0.0085 | – | – | – | – | – | – | – | – | –
